Data on five molecules can be found in article PMC5909619.

Results are given in words; binding and its absence hold for the method and conditions named. Binding seen in cells or lysates may run through a third protein. Some entries that bind do so weakly or less than the wild type. Tags and fused reporters may be left off the sequences shown.

Assay in all cases: co-IP; FLAG-Solo or its deletion mutants co-expressed with β4-YFP fragments in COS-7 cells; lysis buffer with 1% NP-40, 50 mM Tris-HCl pH 7.5, 150 mM NaCl; lysates incubated 2 h at 4°C with an anti-FLAG antibody; immunoblot with anti-FLAG and anti-GFP antibodies
A general note: Immunoblotting shows a protein as a band on a membrane.

Assay [1] addresses FLAG-tagged Solo-WT (human) (UniProt Q8TER5).
Assay [2] addresses FLAG-Solo (330–1057) (human) (UniProt Q8TER5).
Assay [3] deals with FLAG-Solo (1058–1519) (human) (UniProt Q8TER5).
Assay [4] deals with FLAG-Solo (1–329) (human) (UniProt Q8TER5).

B1: β4 (735–1450)-YFP (domain or fragment, UniProt P16144-2 735-1450)
chain: YCACCKACLALLPCCNRGHMVGFKEDHYMLRENLMASDHLDTPMLRSGNLKGRDVVRWKVTNNMQRPGFATHAASINPTELVPYGLSLRLARLCTENLLKPDTRECAQLRQEVEENLNEVYRQISGVHKLQQTKFRQQPNAGKKQDHTIVDTVLMAPRSAKPALLKLTEKQVEQRAFHDLKVAPGYYTLTADQDARGMVEFQEGVELVDVRVPLFIRPEDDDEKQLLVEAIDVPAGTATLGRRLVNITIIKEQARDVVSFEQPEFSVSRGDQVARIPVIRRVLDGGKSQVSYRTQDGTAQGNRDYIPVEGELLFQPGEAWKELQVKLLELQEVDSLLRGRQVRRFHVQLSNPKFGAHLGQPHSTTIIIRDPDELDRSFTSQMLSSQPPPHGDLGAPQNPNAKAAGSRKIHFNWLPPSGKPMGYRVKYWIQGDSESEAHLLDSKVPSVELTNLYPYCDYEMKVCAYGAQGEGPYSSLVSCRTHQEVPSEPGRLAFNVVSSTVTQLSWAEPAETNGEITAYEVCYGLVNDDNRPIGPMKKVLVDNPKNRMLLIENLRESQPYRYTVKARNGAGWGPEREAIINLATQPKRPMSIPIIPDIPIVDAQSGEDYDSFLMYSDDVLRSPSGSQRPSVSDDTEHLVNGRMDFAFPGSTNSLHRMTTTSAAAYGTHLSPHVPHRVLSTSSTLTRDYNSLTRSEHSHSTTLPRDYSTLTSVSSHD
As to B1, the binding result in assay [1] is recorded as “no binding”.

B2: β4 (1121–1752)-YFP (domain or fragment, UniProt P16144-2 1121-1752)
chain: PPPHGDLGAPQNPNAKAAGSRKIHFNWLPPSGKPMGYRVKYWIQGDSESEAHLLDSKVPSVELTNLYPYCDYEMKVCAYGAQGEGPYSSLVSCRTHQEVPSEPGRLAFNVVSSTVTQLSWAEPAETNGEITAYEVCYGLVNDDNRPIGPMKKVLVDNPKNRMLLIENLRESQPYRYTVKARNGAGWGPEREAIINLATQPKRPMSIPIIPDIPIVDAQSGEDYDSFLMYSDDVLRSPSGSQRPSVSDDTEHLVNGRMDFAFPGSTNSLHRMTTTSAAAYGTHLSPHVPHRVLSTSSTLTRDYNSLTRSEHSHSTTLPRDYSTLTSVSSHDSRLTAGVPDTPTRLVFSALGPTSLRVSWQEPRCERPLQGYSVEYQLLNGGELHRLNIPNPAQTSVVVEDLLPNHSYVFRVRAQSQEGWGREREGVITIESQVHPQSPLCPLPGSAFTLSTPSAPGPLVFTALSPDSLQLSWERPRRPNGDIVGYLVTCEMAQGGGPATAFRVDGDSPESRLTVPGLSENVPYKFKVQARTTEGFGPEREGIITIESQDGGPFPQLGSRAGLFQHPLQSEYSSITTTHTSATEPFLVDGLTLGAQHLEAGGSLTRHVTQEFVSRTLTTSGTLSTHMDQQFFQT
Take B2: the binding result in assay [1] is on record as “binds”.

B3: β4 (1451–1752)-YFP (domain or fragment, UniProt P16144-2 1451-1752)
chain: SRLTAGVPDTPTRLVFSALGPTSLRVSWQEPRCERPLQGYSVEYQLLNGGELHRLNIPNPAQTSVVVEDLLPNHSYVFRVRAQSQEGWGREREGVITIESQVHPQSPLCPLPGSAFTLSTPSAPGPLVFTALSPDSLQLSWERPRRPNGDIVGYLVTCEMAQGGGPATAFRVDGDSPESRLTVPGLSENVPYKFKVQARTTEGFGPEREGIITIESQDGGPFPQLGSRAGLFQHPLQSEYSSITTTHTSATEPFLVDGLTLGAQHLEAGGSLTRHVTQEFVSRTLTTSGTLSTHMDQQFFQT
Regarding B3, the binding result in assay [2] is on record as “binds”; in assay [1], “binds”; in assay [3], “no binding”; in assay [4], “no binding”.

B4: β4 (1121–1450)-YFP (domain or fragment, UniProt P16144-2 1121-1450)
chain: PPPHGDLGAPQNPNAKAAGSRKIHFNWLPPSGKPMGYRVKYWIQGDSESEAHLLDSKVPSVELTNLYPYCDYEMKVCAYGAQGEGPYSSLVSCRTHQEVPSEPGRLAFNVVSSTVTQLSWAEPAETNGEITAYEVCYGLVNDDNRPIGPMKKVLVDNPKNRMLLIENLRESQPYRYTVKARNGAGWGPEREAIINLATQPKRPMSIPIIPDIPIVDAQSGEDYDSFLMYSDDVLRSPSGSQRPSVSDDTEHLVNGRMDFAFPGSTNSLHRMTTTSAAAYGTHLSPHVPHRVLSTSSTLTRDYNSLTRSEHSHSTTLPRDYSTLTSVSSHD
Turning to B4, the binding result in assay [1] is “no binding”.

B5: β4 (735–1752)-YFP (domain or fragment, UniProt P16144-2 735-1752)
chain: YCACCKACLALLPCCNRGHMVGFKEDHYMLRENLMASDHLDTPMLRSGNLKGRDVVRWKVTNNMQRPGFATHAASINPTELVPYGLSLRLARLCTENLLKPDTRECAQLRQEVEENLNEVYRQISGVHKLQQTKFRQQPNAGKKQDHTIVDTVLMAPRSAKPALLKLTEKQVEQRAFHDLKVAPGYYTLTADQDARGMVEFQEGVELVDVRVPLFIRPEDDDEKQLLVEAIDVPAGTATLGRRLVNITIIKEQARDVVSFEQPEFSVSRGDQVARIPVIRRVLDGGKSQVSYRTQDGTAQGNRDYIPVEGELLFQPGEAWKELQVKLLELQEVDSLLRGRQVRRFHVQLSNPKFGAHLGQPHSTTIIIRDPDELDRSFTSQMLSSQPPPHGDLGAPQNPNAKAAGSRKIHFNWLPPSGKPMGYRVKYWIQGDSESEAHLLDSKVPSVELTNLYPYCDYEMKVCAYGAQGEGPYSSLVSCRTHQEVPSEPGRLAFNVVSSTVTQLSWAEPAETNGEITAYEVCYGLVNDDNRPIGPMKKVLVDNPKNRMLLIENLRESQPYRYTVKARNGAGWGPEREAIINLATQPKRPMSIPIIPDIPIVDAQSGEDYDSFLMYSDDVLRSPSGSQRPSVSDDTEHLVNGRMDFAFPGSTNSLHRMTTTSAAAYGTHLSPHVPHRVLSTSSTLTRDYNSLTRSEHSHSTTLPRDYSTLTSVSSHDSRLTAGVPDTPTRLVFSALGPTSLRVSWQEPRCERPLQGYSVEYQLLNGGELHRLNIPNPAQTSVVVEDLLPNHSYVFRVRAQSQEGWGREREGVITIESQVHPQSPLCPLPGSAFTLSTPSAPGPLVFTALSPDSLQLSWERPRRPNGDIVGYLVTCEMAQGGGPATAFRVDGDSPESRLTVPGLSENVPYKFKVQARTTEGFGPEREGIITIESQDGGPFPQLGSRAGLFQHPLQSEYSSITTTHTSATEPFLVDGLTLGAQHLEAGGSLTRHVTQEFVSRTLTTSGTLSTHMDQQFFQT
With B5, the binding result in assay [1] is listed as “binds”.
